# Measured values as given in the supplement of paper PMC8728848.
# This is one part of the list.
# Assays:
# Experiment in all cases: glycan array binding signal (z-score within array); higher = stronger binding
# Details in all cases: glycan notation: IUPAC condensed, linker removed
# GalNAc(b1-3)GalNAc = biological target: GalNAc(b1-3)GalNAc
# How it was run: (§1)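 From the Consortium for Functional Glycomics database, 3228 arrays were curated, keeping only those whose protein sequence was available. Binding is given as a within-array Z-score averaged across arrays sharing a protein sequence and across linkers. Negative Z-scores can be read as non-binding.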
# GalNAc(b1-4)GlcNAc = biological target: GalNAc(b1-4)GlcNAc
# How it was run: as §1
# Glc(a1-4)Glc = biological target: Glc(a1-4)Glc
# How it was run: as §1
# Glc(a1-6)Glc(a1-6)Glc = biological target: Glc(a1-6)Glc(a1-6)Glc
# How it was run: as §1
# Glc(b1-4)Glc = biological target: Glc(b1-4)Glc
# How it was run: as §1
# Glc(b1-6)Glc = biological target: Glc(b1-6)Glc
# How it was run: as §1
# GlcA(b1-3)Gal = biological target: GlcA(b1-3)Gal
# How it was run: as §1
# GlcA(b1-3)GlcNAc = biological target: GlcA(b1-3)GlcNAc
# How it was run: as §1
# GlcA(b1-6)Gal = biological target: GlcA(b1-6)Gal
# How it was run: as §1
# [1] = biological target: GlcNAc(a1-3)Gal(b1-4)GlcNAc
# How it was run: as §1
# [2] = biological target: GlcNAc(a1-6)Gal(b1-4)GlcNAc
# How it was run: as §1
# [3] = biological target: GlcNAc(b1-2)Gal(b1-3)GalNAc
# How it was run: as §1
# [4] = biological target: GlcNAc(b1-2)Man(a1-3)[GlcNAc(b1-2)Man(a1-6)]Man(b1-4)GlcNAc(b1-4)GlcNAc
# How it was run: as §1
# GlcNAc(b1-3)Gal = biological target: GlcNAc(b1-3)Gal
# How it was run: as §1
# [5] = biological target: GlcNAc(b1-3)Gal(b1-3)GalNAc
# How it was run: as §1
# GlcNAc(b1-3)Gal(b1-4)Glc = biological target: GlcNAc(b1-3)Gal(b1-4)Glc
# How it was run: as §1
# [6] = biological target: GlcNAc(b1-3)Gal(b1-4)GlcNAc
# How it was run: as §1
# [7] = biological target: GlcNAc(b1-3)Gal(b1-4)GlcNAc(b1-3)Gal(b1-4)GlcNAc
# How it was run: as §1
# GlcNAc(b1-3)GalNAc = biological target: GlcNAc(b1-3)GalNAc
# How it was run: as §1
# GlcNAc(b1-3)Man = biological target: GlcNAc(b1-3)Man
# How it was run: as §1
# [8] = biological target: GlcNAc(b1-3)[GlcNAc(b1-4)][GlcNAc(b1-6)]GlcNAc
# How it was run: as §1
# [9] = biological target: GlcNAc(b1-3)[GlcNAc(b1-6)]Gal(b1-4)GlcNAc
# How it was run: as §1
# [10] = biological target: GlcNAc(b1-3)[GlcNAc(b1-6)]GalNAc
# How it was run: as §1
# [11] = biological target: GlcNAc(b1-4)Gal(b1-4)GlcNAc
# How it was run: as §1
# GlcNAc(b1-4)GlcNAc = biological target: GlcNAc(b1-4)GlcNAc
# How it was run: as §1
# [12] = biological target: GlcNAc(b1-4)GlcNAc(b1-4)GlcNAc
# How it was run: as §1
# [13] = biological target: GlcNAc(b1-4)GlcNAc(b1-4)GlcNAc(b1-4)GlcNAc(b1-4)GlcNAc
# How it was run: as §1
# [14] = biological target: GlcNAc(b1-4)GlcNAc(b1-4)GlcNAc(b1-4)GlcNAc(b1-4)GlcNAc(b1-4)GlcNAc
# How it was run: as §1
# [15] = biological target: GlcNAc(b1-4)[GlcNAc(b1-6)]GalNAc
# How it was run: as §1
# [16] = biological target: GlcNAc(b1-6)Gal(b1-4)GlcNAc
# How it was run: as §1
# GlcNAc(b1-6)GalNAc = biological target: GlcNAc(b1-6)GalNAc
# How it was run: as §1
# GlcNAc3Prop(b1-4)GlcNAc = biological target: GlcNAc3Prop(b1-4)GlcNAc
# How it was run: as §1
# Kdn(a2-3)Gal(b1-3)GlcNAc = biological target: Kdn(a2-3)Gal(b1-3)GlcNAc
# How it was run: as §1
# Kdn(a2-3)Gal(b1-4)GlcNAc = biological target: Kdn(a2-3)Gal(b1-4)GlcNAc
# How it was run: as §1
# [17] = biological target: Man(a1-2)Man(a1-2)Man(a1-3)Man
# How it was run: as §1
# [18] = biological target: Man(a1-2)Man(a1-2)Man(a1-6)[Man(a1-3)]Man
# How it was run: as §1
# Man(a1-2)Man(a1-3)Man = biological target: Man(a1-2)Man(a1-3)Man
# How it was run: as §1
# [19] = biological target: Man(a1-2)Man(a1-3)[Man(a1-2)Man(a1-6)]Man
# How it was run: as §1
# [20] = biological target: Man(a1-2)Man(a1-3)[Man(a1-2)Man(a1-6)]Man(a1-6)[Man(a1-2)Man(a1-2)Man(a1-3)]Man
# How it was run: as §1
# [21] = biological target: Man(a1-2)Man(a1-3)[Man(a1-2)Man(a1-6)]Man(a1-6)[Man(a1-2)Man(a1-2)Man(a1-3)]Man(b1-4)GlcNAc(b1-4)GlcNAc
# How it was run: as §1
# [22] = biological target: Man(a1-2)Man(a1-3)[Man(a1-6)]Man(a1-6)[Man(a1-2)Man(a1-3)]Man(b1-4)GlcNAc(b1-4)GlcNAc
# How it was run: as §1
# [23] = biological target: Man(a1-2)Man(a1-6)[Man(a1-3)]Man(a1-6)[Man(a1-2)Man(a1-2)Man(a1-3)]Man
# How it was run: as §1
# [24] = biological target: Man(a1-2)Man(a1-6)[Man(a1-3)]Man(a1-6)[Man(a1-2)Man(a1-2)Man(a1-3)]Man(b1-4)GlcNAc(b1-4)GlcNAc
# How it was run: as §1
# Man(a1-3)[Man(a1-6)]Man = biological target: Man(a1-3)[Man(a1-6)]Man
# How it was run: as §1
# [25] = biological target: Man(a1-3)[Man(a1-6)]Man(a1-6)[Man(a1-2)Man(a1-3)]Man(b1-4)GlcNAc(b1-4)GlcNAc
# How it was run: as §1
binder,measurement,setting,value
Surfactant Protein D (Human); Neck + Carbohydrate Recognition Domain (NCRD) (Homo sapiens) (protein) MLLFLLSALVLLTQPLGYLEAEMKTYSHRTMPSACTLVMCSSVESGLPGRDRDGREGPRGEKGDPGLPGAAGQAGMPGQAGPVGPKGDNGSVGEPGPKGDTGPSGPPGPPGVPGPAGREGALGKQGNIGPQGKPGPKGEAGPKGEVGAPGMQGSAGARGLAGPKGERGVPGERGVPGNTGAAGSAGAMGPQGSPGARGPPGLKGDKGIPGDKGAKGESGLPDVASLRQQVEALQGQVQHLQAAFSQYKKVELFPNGQSVGEKIFKTAQFVKPFTEAQLLCTQAGGQLASPRSAAENAALQQLVVAKNEAAFLSMTDSKTEGKFTYPTGESLVYSNWAPGEPNDDGGSEDCVEIFTNGKWNDRACGEKRLVVCEF,glycan array binding signal (z-score),GalNAc(b1-3)GalNAc,-0.264
same,glycan array binding signal (z-score),GalNAc(b1-4)GlcNAc,-0.227
same,glycan array binding signal (z-score),Glc(a1-4)Glc,0.054
same,glycan array binding signal (z-score),Glc(a1-6)Glc(a1-6)Glc,-0.14
same,glycan array binding signal (z-score),Glc(b1-4)Glc,0.019
same,glycan array binding signal (z-score),Glc(b1-6)Glc,-0.117
same,glycan array binding signal (z-score),GlcA(b1-3)Gal,-0.2
same,glycan array binding signal (z-score),GlcA(b1-3)GlcNAc,-0.074
same,glycan array binding signal (z-score),GlcA(b1-6)Gal,-0.166
same,glycan array binding signal (z-score),[1],-0.085
same,glycan array binding signal (z-score),[2],-0.272
same,glycan array binding signal (z-score),[3],-0.266
same,glycan array binding signal (z-score),[4],-0.125
same,glycan array binding signal (z-score),GlcNAc(b1-3)Gal,-0.211
same,glycan array binding signal (z-score),[5],-0.22
same,glycan array binding signal (z-score),GlcNAc(b1-3)Gal(b1-4)Glc,-0.21
same,glycan array binding signal (z-score),[6],-0.167
same,glycan array binding signal (z-score),[7],-0.149
same,glycan array binding signal (z-score),GlcNAc(b1-3)GalNAc,-0.245
same,glycan array binding signal (z-score),GlcNAc(b1-3)Man,-0.233
same,glycan array binding signal (z-score),[8],-0.252
same,glycan array binding signal (z-score),[9],-0.244
same,glycan array binding signal (z-score),[10],-0.258
same,glycan array binding signal (z-score),[11],-0.274
same,glycan array binding signal (z-score),GlcNAc(b1-4)GlcNAc,-0.234
same,glycan array binding signal (z-score),[12],-0.24
same,glycan array binding signal (z-score),[13],0.25
same,glycan array binding signal (z-score),[14],0.127
same,glycan array binding signal (z-score),[15],-0.275
same,glycan array binding signal (z-score),[16],-0.163
same,glycan array binding signal (z-score),GlcNAc(b1-6)GalNAc,-0.284
same,glycan array binding signal (z-score),GlcNAc3Prop(b1-4)GlcNAc,-0.269
same,glycan array binding signal (z-score),Kdn(a2-3)Gal(b1-3)GlcNAc,-0.267
same,glycan array binding signal (z-score),Kdn(a2-3)Gal(b1-4)GlcNAc,-0.264
same,glycan array binding signal (z-score),[17],6.02
same,glycan array binding signal (z-score),[18],5.46
same,glycan array binding signal (z-score),Man(a1-2)Man(a1-3)Man,0.79
same,glycan array binding signal (z-score),[19],4.89
same,glycan array binding signal (z-score),[20],4.11
same,glycan array binding signal (z-score),[21],1.01
same,glycan array binding signal (z-score),[22],6.78
same,glycan array binding signal (z-score),[23],4.85
same,glycan array binding signal (z-score),[24],5.33
same,glycan array binding signal (z-score),Man(a1-3)[Man(a1-6)]Man,0.203
same,glycan array binding signal (z-score),[25],4.68
